# The campaign covered roughly 360,000 compounds. About 6,000 (1.7%) were called active. This list was built around the results that the source calls inconclusive (neither active nor inactive); the mix of calls is not that of the screen. Calls follow the shape of the dose curve; as a rule, active = well fitted cell-killing curve with a large enough effect; inconclusive = small, poorly fitted or top-dose-only effect, or effect the other way; inactive = flat fitted curve, though single readings scatter. Potencies of inconclusive entries are left out as doubtful fits.
# Assay: qHTS for induction of synthetic lethality in tumor cells producing 2HG: qHTS for the HT-1080-NT fibrosarcoma cell line;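 also: NT is the 2HG producing partner of a matched IDH1 knockdown line; nearly all actives have a fitted effect of over 55% in size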;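 as to activity, negative = less viability: 0% = DMSO-treated cells and -100% = media-only wells without cells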
# Details: HT-1080-NT fibrosarcoma viability, CellTiter-Glo ATP luminescence, 48 h; activity, negative = less viability: at 46.1 µM (top of the series) unless noted
# In short: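 Fibrosarcoma NT cells, 750 per well in 5% FBS RPMI, were exposed to compound for 48 hours. Viability: CellTiter-Glo luminescence.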
# Potency is read from the fitted curve at half-maximal effect; tags tell the direction and shape of the fitted curve.
SMILES,Potency,"activity, negative = less viability"
COc1ccc(-c2cc(C(=O)N(C)CC(=O)Nc3cccc(F)c3)c3ccccc3n2)cc1OC,"inconclusive [cytotoxic, partial curve]",
O=C(c1ccc2c(c1)OCO2)N1CCN(c2cccc(C(F)(F)F)c2)CC1,active: 18.4 µM,
Cc1ccccc1NC(=O)C[n+]1cc(-c2ccccc2)n2c1CCC2,,inactive: 8.76%
CCCCOc1ccc(CN=C(N)N)cc1Cl,"inconclusive [cytotoxic, single point]",
O=C(NCc1cccs1)C1CCCN(C(=O)Nc2ccc(F)cc2)C1 (configuration not stated),"inconclusive [cytotoxic, full curve]",
O=[N+]([O-])c1ccc(-c2c(-c3ccccc3)ncc3cc(F)ccc23)cc1,"inconclusive [cytotoxic, partial curve]",
CN1CCN(C2Cc3cc(Cl)ccc3Sc3cc(F)ccc32)CC1 (configuration not stated),"inconclusive [cytotoxic, single point]",
C=CCn1c2ccccc2c2n[nH]c(=S)nc21,,inactive: 0.117%
COC(=O)c1cc(NC(=O)CC2SC(=Nc3ccccc3)N(CCc3c[nH]c4ccccc34)C2=O)cc(C(=O)OC)c1 (configuration not stated),,inconclusive: -32.8% [cytotoxic]
CN(CCCNC(=O)CSc1cc(=O)n(C)c2cc(Cl)ccc12)Cc1ccccc1,"inconclusive [cytotoxic, single point]",
Cc1cc(Br)cn2c(Cc3cccc(F)c3)c(-c3cccc(Br)c3)nc12,"inconclusive [cytotoxic, single point]",
CCCc1cc(=O)n2c(nc3ccccc32)[nH]1,,inactive: -3.42%
CC(=O)c1ccc(Nc2cc(C)nc3c(C)cc(C)cc23)cc1,active: 9.2 µM,
COc1ccc(O)c(/C=N/NC(=O)c2ccc(CSc3nc(C)cc(C)n3)cc2)c1,"inconclusive [cytotoxic, full curve]",
Cc1noc(C)c1C(=O)N1CCCC(C(=O)c2cccc(OC(C)C)c2)C1 (configuration not stated),,inactive: 1.38%
c1ccc(COc2cccc(-c3cc4nc(NCCN5CCOCC5)ccn4n3)c2)cc1,active: 14.6 µM,
CCOCCCNC(=O)c1c[nH]c2ccc(S(=O)(=O)Nc3cccc(OC)c3)cc2c1=O,,inactive: -24.2%
CC(C)(C)c1ccc(Cn2nnc3c(=O)[nH]c(C4CCCN(C(=O)c5cccs5)C4)nc32)cc1 (configuration not stated),"inconclusive [cytotoxic, single point]",
COc1ccc(-c2nc3c(C)cc(Br)cn3c2Cc2ccccc2)cc1OC,"inconclusive [cytotoxic, single point]",
COc1ccc2c3c(cccc13)C(=O)N(O)C2=O,"inconclusive [cytotoxic, partial curve]",
Cc1ccc(Cc2c(-c3ccccc3)nc3cc(C)c(Br)c(C)n23)cc1,,inactive: -10.3%
O=C(CNS(=O)(=O)c1ccc([N+](=O)[O-])cc1)N/N=C/c1ccc(O)cc1O,"inconclusive [cytotoxic, single point]",
CCc1cc2cccc(C)c2nc1SCC(=O)Nc1cc(C)on1,"inconclusive [cytotoxic, single point]",
CCCN(CC(=O)Nc1ccccc1C)C(=O)c1ccc(N2CCOCC2)c([N+](=O)[O-])c1,,inactive: -4.97%

SMILES,Potency,"activity, negative = less viability"
CCc1ccc(NC(=O)Cn2nnc(C(=O)NCc3ccc4c(c3)OCO4)c2N)cc1,"inconclusive [cytotoxic, single point]",
COc1ccccc1N(C(=O)c1snc(C(N)=O)c1N)C(C(=O)NC1CCCC1)c1ccc2ncccc2c1 (configuration not stated),"inconclusive [cytotoxic, partial curve]",
COc1ccc(-c2c[n+]3c(n2-c2ccc(C)cc2)CCCCC3)cc1,"inconclusive [cytotoxic, partial curve]",
CCN(CC)C1CCN(C(=O)c2ccc(OC3CCN(CCc4ccccc4)CC3)cc2)C1 (configuration not stated),"inconclusive [cytotoxic, single point]",
COc1ccc(-c2oc3cccnc3c2C#CC2(O)CCCCC2)cc1,"inconclusive [cytotoxic, single point]",
CCCCCC(=O)N/N=C/c1ccccc1[N+](=O)[O-],,inactive: 5.6%
O=C(c1ccco1)N1CCN(C(=O)C2CC2)CC1,,inactive: 14.5%
CNc1c2cccc(C)c2nc2c(C(=O)NCCN(C)C)cccc12,"inconclusive [cytotoxic, single point]",
Cc1cccc(C(=O)Nc2ccc(C(=O)Nc3ccc(O)cc3)cc2)c1,active: 20.6 µM,
CCn1cnc2cc(NCc3nc4ccccc4n3C)ccc21,,inactive: 8.13%
CCc1nnc(NC(=O)Cc2sc(C)nc2-c2ccc(C)cc2)s1,,inactive: -1.33%
CCCCc1nc(NCCNC(=O)c2ccccc2)c(C#N)c2c1CSC(C)(C)C2,"inconclusive [cytotoxic, single point]",
C=CCn1nc([N+](=O)[O-])nc1Sc1cccc2cccnc12,"inconclusive [cytotoxic, partial curve]",
COc1cc(NC(=O)COc2ccc(Cl)cc2)ccc1-c1cc2ccccc2oc1=O,"inconclusive [cytotoxic, single point]",
O=C(c1ccccc1)c1ccccc1C(=O)N1CCN(C(=O)c2ccccc2)CC1,,inactive: -1.85%
O=C(CSc1ccccn1)Nc1nc2ccccc2s1,,inactive: -1.6%
CCN(CC(=O)Nc1ccc(OC)cc1)C(=O)CN1C(=O)NC(C)(c2ccc3ccccc3c2)C1=O (configuration not stated),,inactive: -1.3%
CN1C(=O)C(Cl)(Cl)C(=O)c2ccccc21,active: 18.4 µM,
O=C(NCc1ccco1)c1nc2c(nnn2Cc2ccccc2Cl)c(=O)[nH]1,active: 17.8 µM,
CC1CCN(S(=O)(=O)c2ccc(C(=O)NCc3ccc4c(c3)OCO4)cc2)CC1,"inconclusive [cytotoxic, single point]",
Cn1c(=O)c2c(ncn2CCOc2cccc(Br)c2)n(C)c1=O,"inconclusive [cytotoxic, single point]",
CN(C)c1ccc(Nc2c3c4c(cccc4n(C)c2=O)C(=O)c2ccccc2-3)cc1,active: 5.8 µM,
CON(C)C(=O)CC(CNC(=O)OC(C)(C)C)c1ccc(Cl)cc1 (configuration not stated),,inactive: 1.17%

# From PubChem BioAssay AID686970 (National Center for Advancing Translational Sciences (NCATS), 2013)
